According to patent publication US7442773B2, “Universal peptide-binding scaffolds and protein chips” (The Board of Trustees of The University of Illinois, priority 2004, dated 2008):

Test system: monoclonal antibody KL304
Test: Reactivity with monoclonal antibody KL304, which recognizes empty (peptide-free) HLA-DR molecules
Type: binding
Conditions: KL304 specifically recognizes empty (peptide-free) HLA-DR molecules

B1: DWP-5: evolved single-chain HLA-DR1 variant (α-linker-β) from library lib-αβ, SEQ ID NOs:33 and 34 (protein)
chain: [letters of about 200 residues left out]NLGGGGSGGGRSGGGGSGDTRPRFLWQLKFECHFFNGTERVRFLERCIYNQEESVRFDSDVGEYRAVTELGRPDAEYWNSQKDLLEQRRAAADTYCRHNYGVGESFSVRRRVEPKVTVYPSKTQPLQHHNLLVCSVSGFYPGSIEVRWFRNGQEEKAGVVSTGLIQNGDWTFQTLVMLETVPRSGEVYTCQVEHPSVTSPLTVEWRARSESAQSKLESRGPFEGKPIPNPLLGLDSTRTGHHHHHH
modifications: Sequence of mutant DWP-5
  reactivity with monoclonal antibody KL304: lack of reactivity
